Results reported in PMC12040169 (PLOS Biology, 2025).
This is one part of the list.

What follows are compounds tested on T1, C. trachomatis L2/434/Bu expressing GFP (CTL2-GFP). Settings: total inclusion area; 28.5 h, 10 µM; inhibitor.
T1 construct: L2/434/Bu GFP intracellular growth in HeLa cells
Set-up: species or system HeLa; C. trachomatis total inclusion area by high-content imaging, normalised to DMSO
Method in brief: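 Following bulk GFP and resorufin fluorescence reads, infected cells were fixed, Hoechst-stained and imaged on a high-content platform. Inclusion total area and number per well served as growth proxies; nuclei counts indicated host viability. MICs were derived as for the fluorescence assay.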

SMILES | % of control remaining
Cc1cccc(-c2noc([C@@H]3C[C@@H](O)CN3Cc3ccccn3)n2)c1 [CBK288837] | 103.696
CC(C)(C)S(=O)(=O)Cc1noc(-c2ccc(Cl)nc2)n1 [CBK089825] | 30.9353
Cc1cccc(C2(O)CCN(C(=O)CCCc3ccncc3)CC2)c1 [CBK282506] | 100.621
O=C(O)c1ccc(-c2ccc(N3CCN(C(=O)c4ccco4)CC3)nc2)cc1 [CBK037700] | 99.4794
O=C1CN(c2nc(-c3ccncc3)nc3ccccc23)CCN1 [CBK305805] | 90.0336
COc1ccc2c(c1)CC(C(=O)N1CCc3sccc3C1c1cccs1)CO2 (stereo not drawn) [CBK285628] | 47.703
CC(=O)NCCn1cc2c(n1)[C@H]1CN(C(=O)CC(C)(C)C)C[C@H]1CC2 [CBK284592] | 84.0556
COCC1CCCN1C(=O)c1cnn2c(C)c(Cc3cccc(C#N)c3)c(C)nc12 (stereo not drawn) [CBK162099] | 95.0515
CCOc1n[s+]([O-])nc1Nc1cc(Cl)cc(Cl)c1 (stereo not drawn) [CBK007897] | 51.5865
COc1ccc(CN2CCCN(C(=O)c3cccc(C#N)c3)CC2)cc1 [CBK305281] | 15.3102
CC(C)CNc1nccnc1-c1ccc(Cl)cc1 [CBK088738] | 101.391
Cc1csc(C(Cc2ccsc2)NC(=O)CC2CCCO2)n1 (stereo not drawn) [CBK282227] | 107.994
CCN1CCN(c2ncnc3sc(C)c(C)c23)CC1 [CBK288101] | 84.0594
COc1ccc(-c2cnc(N)c(-c3ccc(C=O)cc3)n2)cn1 [CBK064096] | 91.182
O=C(Cn1cc(C(=O)NC2CCCCC2)ccc1=O)NCC1(c2ccccc2Cl)CC1 [CBK286101] | 127.16
O=C1NCCCc2nc(Nc3ccccc3)sc21 [CBK087091] | 84.6421
Cn1ncc2c1CCCN(C(=O)COc1cccc(F)c1)C2 [CBK285257] | 103.204
CN(C)c1cccc2c(S(=O)(=O)n3ccn(-c4cccc(C(F)(F)F)c4)c3=O)cccc12 [CBK106578] | 90.8767
CC(=O)Nc1ccc(S(=O)(=O)NCCC#N)cc1Cl [CBK044272] | 87.4862
Cc1ccc([N+](=O)[O-])cc1NC(=O)CCn1cnc2ccccc2c1=O [CBK267644] | 100.198

SMILES | % of control remaining
COC(=O)[C@@H](C)NC(=O)[C@H]1CN(C(=O)Nc2ccccc2)CCN1C(=O)NC(C)C [CBK289631] | 103.457
COC(=O)c1ccc(N2CCOCC2)c(NC(=O)c2cccnc2)c1 [CBK270257] | 68.4578
CC(C)(C)c1ccc(C(=O)CC(C(=O)O)N2CCN(c3cccc(Cl)c3)CC2)cc1 (stereo not drawn) [CBK077385] | 73.0216
O=C(O)CCSc1nc(-c2ccccc2)c(-c2ccccc2)[nH]1 [CBK264228] | 105.414
COc1ccc(CNC(=O)c2sccc2S(=O)(=O)N2CCCCC2)cc1 [CBK305904] | 98.6036
O=C(c1ccccc1F)N1CCCC1Cn1c(=O)oc2ccccc21 (stereo not drawn) [CBK282926] | 102.262
CC(=O)NCCNS(=O)(=O)c1ccc(C(C)C)cc1 [CBK043726] | 115.541
c1ccc(CNc2c(-c3ccco3)nc3cnccn23)cc1 [CBK283933] | 90.0851
COC(=O)c1cc(C)sc1NC(=S)Nc1cnn(Cc2cccc3ccccc23)c1 [CBK267098] | 125.155
Cc1cc(C)n(CC2CN(CC(=O)NCc3cccs3)CCO2)n1 (stereo not drawn) [CBK304902] | 106.758
Cc1sc(NC(=O)c2ccc3c(c2)OCCO3)c(C(=O)NCc2cccnc2)c1C [CBK268181] | 92.8984
COc1cccc(/C=C2/NC(=O)N(c3cccc(Cl)c3)C2=O)c1OCc1cccc(C(=O)O)c1 [CBK265626] | 109.558
Cc1nnc(Sc2ccc([N+](=O)[O-])cc2Cl)n1Cc1ccccc1 [CBK269694] | 98.8943
CN1C(=O)c2ccccc2OCCCCC[C@H]2[C@@H]1CCCN2C(=O)c1cc2c([nH]c1=O)CCC2 [CBK292034] | 104.281
Cc1cc2ncn(CC(=O)N3CCC(F)CC3)c2cc1C [CBK200266] | 86.9553
CCCC1=NN(c2ccc([N+](=O)[O-])cc2)C(=O)/C1=C/NC1CC(C)(C)NC(C)(C)C1 [CBK262896] | 100.634
COc1ccc(CN2CCC3(CCc4ccccc4C(=O)N3)C2)cc1 (stereo not drawn) [CBK283339] | 93.3638
Cn1c(CCC(=O)NCC(C)(C)N2CCCCC2)nc2ccccc21 [CBK281877] | 102.36
CC(=O)Nc1ccc(OC(=O)CSc2nc(C)cc(C)n2)cc1 [CBK266707] | 127.835
